{"source": "paper PMC4336329", "about": "(PLoS ONE, 2015)", "note": "Hit rate of the full screen: of about 310,000 compounds, about 14,000 (4.5%) showed an effect of 50% or more. The effect is printed as a negative number. The list shows a part of the results. Where a SMILES comes first, the peptide text is derived from it. [ ]: non-standard residue; d: D form. pGlu = O=C1CC[CH](C(=O)O)N1;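 further: peak tail current of the secondary pulse compared with the same well before compound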", "data": [{"biological_target": "human ether-à-go-go-related gene (hERG) potassium channel (human, UniProt Q12809)", "sequence (Q12809 whole entry, looked up)": "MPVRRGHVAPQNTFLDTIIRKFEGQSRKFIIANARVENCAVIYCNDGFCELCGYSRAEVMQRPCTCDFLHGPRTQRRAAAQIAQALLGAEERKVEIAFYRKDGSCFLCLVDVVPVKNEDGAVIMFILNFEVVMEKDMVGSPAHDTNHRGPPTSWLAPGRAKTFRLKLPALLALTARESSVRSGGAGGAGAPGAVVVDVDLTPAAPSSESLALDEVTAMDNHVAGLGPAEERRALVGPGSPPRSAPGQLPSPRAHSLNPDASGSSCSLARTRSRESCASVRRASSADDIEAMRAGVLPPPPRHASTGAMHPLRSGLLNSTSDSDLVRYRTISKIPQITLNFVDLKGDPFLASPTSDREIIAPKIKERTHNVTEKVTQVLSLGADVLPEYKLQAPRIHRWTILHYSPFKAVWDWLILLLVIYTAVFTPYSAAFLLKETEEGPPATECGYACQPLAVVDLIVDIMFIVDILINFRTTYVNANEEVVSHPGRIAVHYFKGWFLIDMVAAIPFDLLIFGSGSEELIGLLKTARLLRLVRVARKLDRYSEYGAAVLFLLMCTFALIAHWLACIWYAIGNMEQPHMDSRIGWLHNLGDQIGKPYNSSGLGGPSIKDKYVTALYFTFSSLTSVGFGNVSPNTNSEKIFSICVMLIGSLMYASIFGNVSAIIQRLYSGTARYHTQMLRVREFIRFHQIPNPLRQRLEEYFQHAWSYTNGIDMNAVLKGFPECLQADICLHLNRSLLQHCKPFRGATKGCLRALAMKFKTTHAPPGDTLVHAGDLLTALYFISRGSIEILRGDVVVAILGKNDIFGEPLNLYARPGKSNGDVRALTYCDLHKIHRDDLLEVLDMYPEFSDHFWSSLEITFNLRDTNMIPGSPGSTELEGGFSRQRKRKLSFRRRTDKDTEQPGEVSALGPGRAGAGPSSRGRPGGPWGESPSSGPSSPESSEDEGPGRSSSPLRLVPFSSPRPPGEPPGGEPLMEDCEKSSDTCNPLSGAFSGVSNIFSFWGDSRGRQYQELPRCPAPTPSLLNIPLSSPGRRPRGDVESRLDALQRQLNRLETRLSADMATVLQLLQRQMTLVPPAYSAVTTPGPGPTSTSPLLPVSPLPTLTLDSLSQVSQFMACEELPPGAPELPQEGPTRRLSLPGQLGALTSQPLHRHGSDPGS", "experiment": "primary screen, population patch clamp on CHO cells stably expressing hERG", "units": {"hERG current change (%, negative = inhibition) at 10uM": "%"}, "values": [{"molecule": "C=CCOc1ccc(CNc2ccc3[nH]c(=O)[nH]c3c2)cc1", "hERG current change (%, negative = inhibition) at 10uM": 1.57}, {"molecule": "CCN(CC)c1cc(CS(=O)c2ccccc2)nc(-c2ccccc2)n1", "note": "(stereo not shown)", "hERG current change (%, negative = inhibition) at 10uM": -44.9}, {"molecule": "CC(/C=C1\\SC(=Nc2cccnc2)NC1=O)=C\\c1ccccc1", "hERG current change (%, negative = inhibition) at 10uM": 8.95}, {"molecule": "CC(=C/c1ccc(C(C)C)cc1)/C=N/NC(=O)Cn1nnnc1N", "hERG current change (%, negative = inhibition) at 10uM": 17.3}, {"molecule": "O=C(Nc1nnc(S(=O)(=O)Nc2ccccc2)s1)c1ccccc1Cl", "hERG current change (%, negative = inhibition) at 10uM": 8.51}, {"molecule": "O=C(CN1CCN(C(=O)c2ccco2)CC1)Nc1ccccc1", "hERG current change (%, negative = inhibition) at 10uM": -13.9}, {"molecule": "O=C(Cn1[nH]c(=O)c2ccccc2c1=O)OCC(=O)c1ccc(Br)cc1", "hERG current change (%, negative = inhibition) at 10uM": 11.9}, {"molecule": "CN1CCN(NC(=O)c2ccc(COc3ccccc3Br)o2)CC1", "hERG current change (%, negative = inhibition) at 10uM": -18.3}, {"molecule": "CC1CCc2nc3sc4c(c3c(N)c2C1)CCCC4", "note": "(stereo not shown)", "hERG current change (%, negative = inhibition) at 10uM": -9.43}, {"molecule": "COc1ccc(N(C(=O)c2cccnc2)S(=O)(=O)c2ccc(F)cc2)cc1", "hERG current change (%, negative = inhibition) at 10uM": -11.9}, {"molecule": "O=C(CN(Cc1ccco1)C(=O)CNS(=O)(=O)c1ccc(Cl)cc1)NCc1ccco1", "hERG current change (%, negative = inhibition) at 10uM": -55.4}, {"molecule": "CC(=O)N1CCN(C(=S)NC(=O)c2ccc(S(=O)(=O)N3CCOCC3)cc2)CC1", "hERG current change (%, negative = inhibition) at 10uM": 9.7}, {"molecule": "Cc1ccc(Sc2ncccc2[N+](=O)[O-])cc1", "hERG current change (%, negative = inhibition) at 10uM": 0.884}, {"molecule": "Cc1cc(C(=O)N/N=C/c2ccc([N+](=O)[O-])o2)c(C)o1", "hERG current change (%, negative = inhibition) at 10uM": -7.72}, {"molecule": "Cc1csc(-c2cccnc2)n1", "hERG current change (%, negative = inhibition) at 10uM": 6.37}, {"molecule": "Cc1cccc(C)c1NC(=O)c1sccc1SCC#N", "hERG current change (%, negative = inhibition) at 10uM": -21.3}, {"molecule": "Cn1cnc2cc(NS(=O)(=O)c3ccc(Br)cc3)ccc21", "hERG current change (%, negative = inhibition) at 10uM": 10.1}, {"molecule": "Cc1ccc(N(C)S(=O)(=O)c2cc3c(cc2C)NC(=O)CO3)cc1", "hERG current change (%, negative = inhibition) at 10uM": -1.65}, {"molecule": "COCCNC(=O)/C(C#N)=C/c1nc(N(C)C)n(-c2ccc(F)cc2)c1Cl", "hERG current change (%, negative = inhibition) at 10uM": 4.18}, {"molecule": "Cc1ccn2c(-c3n[nH]c(=S)n3C)c(C)nc2c1", "hERG current change (%, negative = inhibition) at 10uM": 19.6}, {"molecule": "Clc1ccccc1C1=NCc2nncn2-c2sc(Br)cc21", "hERG current change (%, negative = inhibition) at 10uM": 4.71}, {"molecule": "O=C(Nc1cccc(O)c1)C1CC(c2c(F)cccc2Cl)=NO1", "note": "(stereo not shown)", "hERG current change (%, negative = inhibition) at 10uM": -15.6}, {"molecule": "COc1ccc(C(C#N)N2CCOCC2)cc1", "note": "(stereo not shown)", "hERG current change (%, negative = inhibition) at 10uM": 9.08}, {"molecule": "Cc1ccc(S(=O)(=O)NCc2ccccc2)cc1C(=O)NCC1CCCO1", "note": "(stereo not shown)", "hERG current change (%, negative = inhibition) at 10uM": 7.03}, {"molecule": "CCCCCN(C(=O)CCC(=O)OCC(=O)NC1CCC(C)CC1)c1c(N)n(CCCC)c(=O)[nH]c1=O", "note": "(stereo not shown)", "hERG current change (%, negative = inhibition) at 10uM": 12.9}, {"molecule": "CNC(=O)C(C#N)(Cc1cc(C(C)=O)ccc1OC)Cc1cc(C(C)=O)ccc1OC", "hERG current change (%, negative = inhibition) at 10uM": 16.5}, {"molecule": "C(=N\\Nc1ncnc2sc3c(c12)CCC3)/c1cccs1", "hERG current change (%, negative = inhibition) at 10uM": 7.32}, {"molecule": "Cc1cc(C(=O)N/N=C/c2ccc(-c3cccc(Br)c3)o2)n[nH]1", "hERG current change (%, negative = inhibition) at 10uM": 12.4}, {"molecule": "Cc1cc(Br)cc2c(C(=O)NCC3CCCO3)cc(-c3cccs3)nc12", "note": "(stereo not shown)", "hERG current change (%, negative = inhibition) at 10uM": 4.81}, {"molecule": "CC(C)c1ccc2oc(=O)cc(CN3CCN(c4ccccc4)CC3)c2c1", "hERG current change (%, negative = inhibition) at 10uM": -10.4}, {"molecule": "Cc1ccc(Cl)cc1NC(=O)CCC(=O)O", "hERG current change (%, negative = inhibition) at 10uM": 8.47}, {"molecule": "CNC(=O)c1[nH]nc2c1CCc1cc(OC)ccc1-2", "hERG current change (%, negative = inhibition) at 10uM": 12.8}, {"molecule": "S=c1[nH]nc(COc2ccccc2)n1/N=C/C=C/c1ccccc1", "hERG current change (%, negative = inhibition) at 10uM": 5.34}, {"molecule": "COCCn1nnnc1CN1CCC(C)CC1", "hERG current change (%, negative = inhibition) at 10uM": -2.19}, {"molecule": "CCOc1cc(/C=N/NC(N)=O)cc(Br)c1OCC(=O)Nc1ccccc1C", "hERG current change (%, negative = inhibition) at 10uM": -65.7}, {"molecule": "Cc1cnc([N+](=O)[O-])n1CCOC(=O)NC(=O)c1ccc(F)cc1", "hERG current change (%, negative = inhibition) at 10uM": -9.2}, {"molecule": "CC1(C)CC2CC(C)(CN2c2ncnc3ccc(Br)cc23)C1", "note": "(stereo not shown)", "hERG current change (%, negative = inhibition) at 10uM": 11}, {"molecule": "CCn1c(SCC(=O)c2ccc(Cl)s2)nnc1-c1cccs1", "hERG current change (%, negative = inhibition) at 10uM": -35.5}, {"molecule": "CCCCOc1ccc(C(=O)NCC(=O)NCCOc2ccccc2)cc1", "hERG current change (%, negative = inhibition) at 10uM": 1.13}, {"molecule": "O=C(CC(=O)NC1CCCCC1)N/N=C/c1ccccc1Cl", "hERG current change (%, negative = inhibition) at 10uM": 11}, {"molecule": "Cc1cccc(Nc2nc(N)c(C#N)c(CC#N)c2C#N)c1", "hERG current change (%, negative = inhibition) at 10uM": -17.3}, {"molecule": "CCNC(=O)C(CC(C)C)NC(=O)C(CO)NC(=O)C1CCC(=O)N1", "note": "(stereo not drawn) ([pGlu]-Ser-Leu-NHEt; configuration not given here)", "hERG current change (%, negative = inhibition) at 10uM": 11.8}, {"molecule": "O=S(=O)(c1ccc(Cl)cc1)N1CCN(Cc2cccnc2)CC1", "hERG current change (%, negative = inhibition) at 10uM": -27.2}, {"molecule": "CC(=O)n1cc(/C=N/NC(=O)c2ccccc2Cl)c2ccccc21", "hERG current change (%, negative = inhibition) at 10uM": 26.4}, {"molecule": "O=C(O)C1CCN(C(=O)c2cc(F)cc3c2OCOC3)CC1", "hERG current change (%, negative = inhibition) at 10uM": 17.1}, {"molecule": "O=C(N1CCN(CCO)CC1)N1c2ccccc2CCc2ccccc21", "hERG current change (%, negative = inhibition) at 10uM": -3.3}, {"molecule": "Cc1cccc(OCC(=O)NCC(=O)N/N=C/c2cc(Br)cc(Br)c2O)c1", "hERG current change (%, negative = inhibition) at 10uM": 23}, {"molecule": "CCN(CC)C(=O)C1CCCN(C/C=C/c2ccccc2)C1", "note": "(stereo not shown)", "hERG current change (%, negative = inhibition) at 10uM": -40.8}, {"molecule": "O=C(O)CCc1ccc(-c2ccccc2)n1CC(=O)Nc1cccc(C(F)(F)F)c1", "hERG current change (%, negative = inhibition) at 10uM": 24.2}, {"molecule": "CN1C(=O)NC(=O)[C@]2(Cc3ccccc3N3CCN(c4ccccc4)CC32)C1=O", "note": "(stereo partly shown)", "hERG current change (%, negative = inhibition) at 10uM": 0.699}, {"molecule": "Cc1ccc(OCC(=O)Nn2cnc3ccccc32)cc1", "hERG current change (%, negative = inhibition) at 10uM": 8.56}, {"molecule": "COc1cc(CN(C)Cc2cccc3ccccc23)cc([N+](=O)[O-])c1O", "hERG current change (%, negative = inhibition) at 10uM": 11.9}, {"molecule": "O=C(COc1cccc(Br)c1)N/N=C1\\CCSC1", "hERG current change (%, negative = inhibition) at 10uM": 15.6}, {"molecule": "Nn1c(-c2ccccc2)nc2ccccc2c1=O", "hERG current change (%, negative = inhibition) at 10uM": 2.35}, {"molecule": "CC(C)(C)NS(=O)(=O)c1cccc(S(=O)(=O)c2cccc(S(=O)(=O)NC(C)(C)C)c2)c1", "hERG current change (%, negative = inhibition) at 10uM": -35.3}, {"molecule": "COc1cccc(C(=O)CC(=O)C(=O)Nc2cc(Cl)c(OC)cc2OC)c1", "hERG current change (%, negative = inhibition) at 10uM": -1.34}, {"molecule": "Cn1nc(CC(=O)N2CCN(c3ccccc3)CC2)c2ccccc2c1=O", "hERG current change (%, negative = inhibition) at 10uM": -16.1}, {"molecule": "CCn1c(SCC(=O)c2cc(OC)ccc2OC)nnc1-c1ccncc1", "hERG current change (%, negative = inhibition) at 10uM": -14.7}]}]}
